Some of the results follow. Cut-off read from the data, not from the text of the source: active = 3.2 or more and inactive = the rest. The signal is at background level for most entries.
Columns and labels:
Assay in all cases: enrichment score (SH2-bound / input frequency) (ratio); bacterial display of known human phosphotyrosine sites (pTyr-Var adds point mutants) read by sequencing; higher = stronger binding; tyrosines were phosphorylated by kinases first
Conditions in all cases: peptide library: pTyr-Var
[1] = target: SHP2 C-SH2 domain E139D
[2] = target: SHP2 C-SH2 domain wild-type
[3] = target: SHP2 N-SH2 domain L43F
[4] = target: SHP2 N-SH2 domain T42A
[5] = target: SHP2 N-SH2 domain T52S
[6] = target: SHP2 N-SH2 domain wild-type
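Note: displayed peptides selected on beads carrying the immobilized SH2 domain, with library peptides lacking any tyrosine serving as negative controls.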

Binder | enrichment score [1] | enrichment score [2] | enrichment score [3] | enrichment score [4] | enrichment score [5] | enrichment score [6]
FFVVRYCWLRR [MPZ_Y181_YF] | inactive: 0.325 | inactive: 0.571 | inactive: 0.3 | inactive: 0.213 | inactive: 0.311 | inactive: 0.211
LWPIWYRCHRP [MRGPRX1_Y130] | inactive: 0.508 | inactive: 0.509 | inactive: 0.478 | inactive: 0.409 | inactive: 0.59 | inactive: 0.364
PLFKIYVAELI [MRPL28_Y230] | inactive: 1.85 | inactive: 1.45 | inactive: 1.51 | inactive: 1.01 | inactive: 1.34 | inactive: 1.3
GESQGYDIMEA [MSH2_Y863_P868A] | inactive: 0.446 | inactive: 0.397 | inactive: 0.375 | inactive: 0.405 | inactive: 0.429 | inactive: 0.459
RQSTLYSFFPT [MSH6_Y8_K13T] | inactive: 0.828 | inactive: 1.02 | inactive: 1.11 | inactive: 0.941 | inactive: 1.1 | inactive: 0.873
ARSMEYLAEQK [MST1R_Y1198] | inactive: 1.25 | inactive: 0.817 | inactive: 0.9 | inactive: 0.959 | inactive: 0.942 | inactive: 1.13
ARGMEYLAEQK [MST1R_Y1198_G1195S] | inactive: 0.682 | inactive: 0.755 | inactive: 0.673 | inactive: 0.48 | inactive: 0.743 | inactive: 0.683
TLNTNYHLPPS [MT-ATP8_Y33_M28T] | inactive: 1.02 | inactive: 0.683 | inactive: 0.667 | inactive: 0.697 | inactive: 0.828 | inactive: 0.747
TRDVNYGWIIR [MT-CYB_Y75] | inactive: 0.855 | inactive: 0.974 | inactive: 1.14 | inactive: 0.819 | inactive: 0.742 | inactive: 0.927
TRDVNYGWTIR [MT-CYB_Y75_I78T] | inactive: 0.519 | inactive: 0.525 | inactive: 0.827 | inactive: 0.921 | inactive: 0.645 | inactive: 0.863
TRDVNYGWIIH [MT-CYB_Y75_R80H] | inactive: 1.1 | inactive: 1.04 | inactive: 1.27 | inactive: 1.63 | inactive: 1.48 | inactive: 1.13
STTSDYQWDFS [MTDH_Y364_V368F] | inactive: 0.976 | inactive: 0.819 | inactive: 0.908 | inactive: 0.853 | inactive: 1.02 | inactive: 0.923
DDSNLYINVKL [MTHFD1_Y52] | inactive: 0.81 | inactive: 1.21 | inactive: 0.982 | inactive: 0.864 | inactive: 0.827 | inactive: 1.23
VDEVLYEDSST [MTHFS_Y197] | inactive: 0.629 | inactive: 0.68 | inactive: 0.85 | inactive: 0.732 | inactive: 0.733 | inactive: 0.696
TNYSLYLRSLE [MTM1_Y71_R69S] | inactive: 1.83 | active: 3.8 | inactive: 0.89 | inactive: 0.868 | inactive: 1.19 | inactive: 0.836
TNDRLYLRSLE [MTM1_Y71_Y68D] | inactive: 0.914 | inactive: 0.63 | inactive: 0.765 | inactive: 0.626 | inactive: 0.729 | inactive: 0.911
QMQNPYSSHSS [MUC13_Y501_R503S] | inactive: 0.538 | inactive: 0.62 | inactive: 0.57 | inactive: 0.503 | inactive: 0.425 | inactive: 0.699
YFVVEYRDQKP [MUC17_Y4332] | inactive: 1.85 | inactive: 2.99 | inactive: 1.8 | inactive: 1.98 | inactive: 1.75 | inactive: 1.83
YFVVEYRNQKP [MUC17_Y4332_D4334N] | inactive: 1.97 | inactive: 2.72 | inactive: 2.04 | inactive: 2.21 | inactive: 2.31 | inactive: 1.94

Binder | enrichment score [1] | enrichment score [2] | enrichment score [3] | enrichment score [4] | enrichment score [5] | enrichment score [6]
KFFRVYQGQQP [MUTYH_Y494_V490F] | inactive: 0.659 | inactive: 0.462 | inactive: 0.41 | inactive: 0.584 | inactive: 0.59 | inactive: 0.363
ACRSLYGGFVE [MVD_Y164] | inactive: 0.88 | inactive: 0.707 | inactive: 0.566 | inactive: 0.63 | inactive: 0.711 | inactive: 0.68
ACLSLYGGFVE [MVD_Y164_R161L] | inactive: 0.841 | inactive: 1.05 | inactive: 0.752 | inactive: 0.771 | inactive: 0.554 | inactive: 1.16
FPPISYLNAIS [MVD_Y276] | inactive: 1.19 | inactive: 0.87 | inactive: 1.29 | inactive: 1.6 | inactive: 1.19 | inactive: 1.12
VHSGTYQVTVR [MYBPC3_Y1043] | inactive: 0.844 | inactive: 0.662 | inactive: 0.833 | inactive: 0.7 | inactive: 0.845 | inactive: 0.705
TVLEHYRRTHC [MYBPC3_Y1119] | inactive: 0.785 | inactive: 0.705 | inactive: 0.773 | inactive: 0.676 | inactive: 0.746 | inactive: 0.668
TGNGYYFRVFS [MYBPC3_Y1136_I1131T] | inactive: 0.838 | inactive: 1.05 | inactive: 0.587 | inactive: 0.883 | inactive: 0.681 | inactive: 0.931
IGNGFYFRVFS [MYBPC3_Y1136_YF] | inactive: 0.76 | inactive: 0.859 | inactive: 0.659 | inactive: 0.596 | inactive: 0.644 | inactive: 0.907
RVAFQYGVTDL [MYBPC3_Y340_I336V] | inactive: 1.04 | inactive: 0.838 | inactive: 0.73 | inactive: 0.735 | inactive: 0.913 | inactive: 0.969
RIAFQYGDTDL [MYBPC3_Y340_V342D] | inactive: 1 | inactive: 0.768 | inactive: 1.04 | inactive: 0.823 | inactive: 1.02 | inactive: 0.959
NYDLDYDSVQP [MYC_Y16] | inactive: 0.843 | inactive: 0.748 | inactive: 0.682 | inactive: 0.56 | inactive: 0.605 | inactive: 0.75
SYDLDYDSVQP [MYC_Y16_N11S] | inactive: 0.567 | inactive: 0.598 | inactive: 0.602 | inactive: 0.605 | inactive: 0.595 | inactive: 0.78
RSRSSYTHGLN [MYCT1_Y116] | inactive: 0.304 | inactive: 0.216 | inactive: 0.383 | inactive: 0.246 | inactive: 0.311 | inactive: 0.313
ITVCDYTNPCT [MYD88_Y276] | inactive: 2.09 | inactive: 2.03 | inactive: 2.47 | inactive: 1.7 | inactive: 2.64 | inactive: 1.79
ITVCDYTNPCP [MYD88_Y276_T281P] | inactive: 1.17 | inactive: 0.945 | inactive: 1.27 | inactive: 0.754 | inactive: 1.22 | inactive: 1.02
ADKAAYLQNLN [MYH1_Y389] | inactive: 0.46 | inactive: 0.636 | inactive: 0.485 | inactive: 0.618 | inactive: 0.849 | inactive: 0.534
ADKAAYLQSMN [MYH2_Y389_L393M] | inactive: 0.632 | inactive: 0.736 | inactive: 0.618 | inactive: 0.526 | inactive: 0.601 | inactive: 0.693
EWKQKYEESQS [MYH6_Y1462] | inactive: 0.827 | inactive: 0.826 | inactive: 0.75 | inactive: 0.852 | inactive: 0.947 | inactive: 0.983

From the supplement of paper PMC10369915
